# The supplement of paper PMC8728848
# Some of the results follow.
# B1: Beta-Defensin 3 (Homo sapiens), P81534 (peptide)
# chain: GIINTLQKYYCRVRGGRCAVLSCLPKEEQIGKCSTRGRKCCRRKK
# Legend:
# Assay in all cases: glycan array binding signal (z-score within array); higher = stronger binding
# Conditions in all cases: glycan notation: IUPAC condensed, linker removed
# [1] = target: Fuc(a1-2)[GalNAc(a1-3)]Gal(b1-4)GlcNAc
# Outline: (§1)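 Glycan array data came from 3228 arrays in the Consortium for Functional Glycomics database, and only arrays with an available protein sequence were kept. Glycan names were put into IUPAC-condensed notation, and columns mapping to the same glycan were averaged. The binding signal is a within-array Z-score, averaged across arrays of one protein sequence run at different concentrations or buffers and across linkers. A negative Z-score can be read as non-binding.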
# [2] = target: Fuc(a1-2)[GalNAc(a1-3)]Gal(b1-4)GlcNAc(b1-2)Man(a1-3)[GalNAc(a1-3)[Fuc(a1-2)]Gal(b1-4)GlcNAc(b1-2)Man(a1-6)]Man(b1-4)GlcNAc(b1-4)GlcNAc
# Outline: as §1
# [3] = target: Fuc(a1-2)[GalNAc(a1-3)]Gal(b1-4)GlcNAc(b1-3)Gal(b1-4)GlcNAc
# Outline: as §1
# [4] = target: Fuc(a1-2)[GalNAc(a1-3)]Gal(b1-4)GlcNAc(b1-3)Gal(b1-4)GlcNAc(b1-3)Gal(b1-4)GlcNAc
# Outline: as §1
# [5] = target: Fuc(a1-2)[GalNAc(a1-3)]Gal(b1-4)[Fuc(a1-3)]GlcNAc
# Outline: as §1
# [6] = target: Fuc(a1-2)[GalNAc(a1-4)]Gal(b1-4)GlcNAc
# Outline: as §1
# [7] = target: Fuc(a1-2)[GalNAc(b1-3)]Gal
# Outline: as §1
# [8] = target: Fuc(a1-3)GlcNAc
# Outline: as §1
# [9] = target: Fuc(a1-3)[Gal(b1-4)]Glc6S
# Outline: as §1
# [10] = target: Fuc(a1-3)[Gal(b1-4)]GlcNAc
# Outline: as §1
# [11] = target: Fuc(a1-3)[Gal(b1-4)]GlcNAc(b1-2)Man(a1-3)[Fuc(a1-3)[Gal(b1-4)]GlcNAc(b1-2)Man(a1-6)]Man(b1-4)GlcNAc(b1-4)GlcNAc
# Outline: as §1
# [12] = target: Fuc(a1-3)[Gal(b1-4)]GlcNAc(b1-2)Man(a1-6)[Gal(b1-4)GlcNAc(b1-2)Man(a1-3)]Man(b1-4)GlcNAc(b1-4)GlcNAc
# Outline: as §1
# [13] = target: Fuc(a1-3)[Gal(b1-4)]GlcNAc(b1-3)Gal(b1-3)[Fuc(a1-4)]GlcNAc
# Outline: as §1
# [14] = target: Fuc(a1-3)[Gal(b1-4)]GlcNAc(b1-4)Gal(b1-4)[Fuc(a1-3)]GlcNAc
# Outline: as §1
# [15] = target: Fuc(a1-3)[Gal(b1-4)]GlcNAc(b1-4)Gal(b1-4)[Fuc(a1-3)]GlcNAc(b1-4)Gal(b1-4)[Fuc(a1-3)]GlcNAc
# Outline: as §1
# [16] = target: Fuc(a1-3)[Gal(b1-4)]GlcNAc6S
# Outline: as §1
# [17] = target: Fuc(a1-3)[Gal3S(b1-4)]Glc6S
# Outline: as §1
# [18] = target: Fuc(a1-3)[Gal3S(b1-4)]GlcNAc
# Outline: as §1
# [19] = target: Fuc(a1-3)[Gal3S(b1-4)]GlcNAc6S
# Outline: as §1
# [20] = target: Fuc(a1-3)[GalNAc(b1-4)]GlcNAc
# Outline: as §1
# [21] = target: Fuc(a1-4)GlcNAc
# Outline: as §1
# [22] = target: Fuc(b1-3)GlcNAc
# Outline: as §1
# [23] = target: Gal(a1-2)Gal
# Outline: as §1
# [24] = target: Gal(a1-3)Gal
# Outline: as §1
# [25] = target: Gal(a1-3)Gal(b1-3)GlcNAc
# Outline: as §1
# [26] = target: Gal(a1-3)Gal(b1-4)Glc
# Outline: as §1
# [27] = target: Gal(a1-3)Gal(b1-4)GlcNAc
# Outline: as §1
# [28] = target: Gal(a1-3)Gal(b1-4)[Fuc(a1-3)]GlcNAc
# Outline: as §1
# [29] = target: Gal(a1-3)Gal(b1-4)[Fuc(a1-3)]GlcNAc(b1-2)Man(a1-3)[Gal(a1-3)Gal(b1-4)[Fuc(a1-3)]GlcNAc(b1-2)Man(a1-6)]Man(b1-4)GlcNAc(b1-4)GlcNAc
# Outline: as §1
# [30] = target: Gal(a1-3)GalNAc
# Outline: as §1
# [31] = target: Gal(a1-3)[Gal(a1-4)]Gal(b1-4)GlcNAc
# Outline: as §1
# [32] = target: Gal(a1-4)Gal(b1-4)Glc
# Outline: as §1
# [33] = target: Gal(a1-4)Gal(b1-4)GlcNAc
# Outline: as §1
# [34] = target: Gal(a1-4)Gal(b1-4)GlcNAc(b1-3)Gal(b1-4)Glc
# Outline: as §1
# [35] = target: Gal(a1-4)GlcNAc
# Outline: as §1
# [36] = target: Gal(a1-6)Glc
# Outline: as §1
# [37] = target: Gal(b1-2)Gal
# Outline: as §1
# [38] = target: Gal(b1-3)Gal
# Outline: as §1
binder,measurement,setting,value
B1,glycan array binding signal (z-score),[1],-0.435
same,glycan array binding signal (z-score),[2],-0.567
same,glycan array binding signal (z-score),[3],2.16
same,glycan array binding signal (z-score),[4],1.43
same,glycan array binding signal (z-score),[5],-0.366
same,glycan array binding signal (z-score),[6],-0.592
same,glycan array binding signal (z-score),[7],-0.299
same,glycan array binding signal (z-score),[8],-0.384
same,glycan array binding signal (z-score),[9],0.966
same,glycan array binding signal (z-score),[10],-0.229
same,glycan array binding signal (z-score),[11],-0.32
same,glycan array binding signal (z-score),[12],-0.789
same,glycan array binding signal (z-score),[13],-0.468
same,glycan array binding signal (z-score),[14],-0.259
same,glycan array binding signal (z-score),[15],-0.422
same,glycan array binding signal (z-score),[16],1.84
same,glycan array binding signal (z-score),[17],3.57
same,glycan array binding signal (z-score),[18],0.117
same,glycan array binding signal (z-score),[19],8.21
same,glycan array binding signal (z-score),[20],-0.467
same,glycan array binding signal (z-score),[21],-0.369
same,glycan array binding signal (z-score),[22],-0.47
same,glycan array binding signal (z-score),[23],0.457
same,glycan array binding signal (z-score),[24],0.608
same,glycan array binding signal (z-score),[25],-0.477
same,glycan array binding signal (z-score),[26],-0.491
same,glycan array binding signal (z-score),[27],-0.238
same,glycan array binding signal (z-score),[28],-0.233
same,glycan array binding signal (z-score),[29],-0.694
same,glycan array binding signal (z-score),[30],0.1
same,glycan array binding signal (z-score),[31],-0.427
same,glycan array binding signal (z-score),[32],-0.018
same,glycan array binding signal (z-score),[33],-0.265
same,glycan array binding signal (z-score),[34],0.228
same,glycan array binding signal (z-score),[35],-0.126
same,glycan array binding signal (z-score),[36],0.163
same,glycan array binding signal (z-score),[37],0.102
same,glycan array binding signal (z-score),[38],0.134
